Reference: the supplement of paper PMC12217912
The list shows a part of the results. Sequences were assembled here from the parent chain. Inactive controls read about 0.05.

B1: TEV protease; numbered along this chain (parent)
chain: MGESLFKGPRDYNPISSSICHLTNESDGHTTSLYGIGFGPFIITNKHLFRRNNGTLVVQSLHGVFKVKDTTTLQQHLVDGRDMIIIRMPKDFPPFPQKLKFREPQREERICLVTTNFQTKSMSSMVSDTSCTFPSGDGIFWKHWIQTKDGQCGSPLVSTRDGFIVGIHSASNFTNTNNYFTSVPKNFMELLTNQEAQQWVSGWRLNADSVLWGGHKVFMVKPEEPFQPVKEATQL

Variants of: B1
Experiment: raw area under fraction-flipped curve 0-4 h after induction (AUC4h, not background-subtracted), DNA-recorder readout of cleavage of the substrate (dimensionless); higher = more cleavage of the substrate by the protease variant
Conditions: temperature: 34 °C; time window: 0-4 h after rhamnose induction
Protocol: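 In vivo DNA recorder in E. coli TOP10(DE3) ΔrhaA at 34 °C. Each TEVp single-site mutant (parent TEVp 0) is paired with a single-site variant of the 7-mer TEVs (canonical ENLYFQ|S). The substrate sits between flexible linkers in a Bxb1-sfGFP-TEVs-SsrA fusion, so cleavage stabilises Bxb1 and speeds flipping of a recombination array, read by NGS. The value is the raw area under the fraction-flipped curve over 0-4 h after rhamnose induction (AUC4h), with ≥20 reads per time point. It is not background-subtracted; inactive controls average about 0.047.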
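Further: Bxb1 expression induced with 0.2% (w/v) L-rhamnose at OD600 near 0.5, cultures sampled hourly, flipped fraction per protease–substrate barcode pair counted by paired-end Illumina sequencing.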

| Variant | area with substrate ENLYFQA | area with substrate ENLYFQD | area with substrate ENLYFQF | area with substrate ENLYFQG | area with substrate ENLYFQH | area with substrate ENLYFQI | area with substrate ENLYFQL | area with substrate ENLYFQM | area with substrate ENLYFQN | area with substrate ENLYFQP | area with substrate ENLYFQQ | area with substrate ENLYFQR | area with substrate ENLYFQS | area with substrate ENLYFQT | area with substrate ENLYFQV | area with substrate ENLYFQW | area with substrate ENLYFQY | area with substrate ENLYFQC | area with substrate ENLYFQK | area with substrate ENLYFQE |
| --- | --- | --- | --- | --- | --- | --- | --- | --- | --- | --- | --- | --- | --- | --- | --- | --- | --- | --- | --- | --- |
| P134I | 0.085 | 0.0591 | 0.0592 | 0.0954 | 0.0657 | 0.0238 | 0.0562 | 0.0749 | 0.0691 | 0.0615 | 0.0625 | 0.0489 | 0.0838 | 0.0349 | 0.0644 | 0.0856 | 0.0607 |  |  |  |
| R109F | 0.107 | 0.082 | 0.0635 | 0.0897 |  |  | 0.0561 | 0.0884 | 0.0638 |  |  |  | 0.099 | 0.0673 | 0.0461 |  | 0.0675 | 0.124 |  |  |
| C131R | 0.0701 | 0.0317 |  |  |  |  | 0.0649 |  |  | 0.0595 |  | 0.054 | 0.0955 | 0.0416 |  | 0.0486 |  |  |  |  |
| N116R | 0.118 | 0.0904 | 0.0975 | 0.0739 | 0.0775 |  |  | 0.0819 |  |  |  | 0.0622 | 0.11 | 0.075 | 0.0672 | 0.0786 |  |  | 0.0644 |  |
| I110P | 0.0685 |  |  |  | 0.0808 |  |  | 0.0541 |  |  | 0.0608 | 0.0591 | 0.057 |  |  | 0.0604 | 0.0909 | 0.0578 |  |  |
| I110C | 0.0927 | 0.0731 | 0.079 | 0.115 | 0.0835 | 0.0626 | 0.0588 | 0.0463 | 0.0638 |  |  | 0.0618 | 0.107 | 0.0642 |  | 0.085 | 0.0894 | 0.131 | 0.0687 |  |
| K120R | 0.126 | 0.0719 |  | 0.109 | 0.0888 | 0.061 | 0.0655 | 0.103 | 0.0759 | 0.0637 |  | 0.0538 | 0.108 | 0.0788 | 0.0419 | 0.0721 | 0.0666 | 0.117 | 0.0576 |  |
| S127V | 0.114 |  |  |  |  |  | 0.055 | 0.098 | 0.104 | 0.0644 |  | 0.0724 | 0.108 | 0.0776 |  |  |  |  | 0.0773 |  |
| S127F | 0.1 |  | 0.0943 | 0.0999 | 0.0882 | 0.0297 | 0.0677 | 0.101 | 0.0853 | 0.0277 | 0.0577 | 0.0551 | 0.114 | 0.0667 |  | 0.0643 | 0.096 | 0.105 | 0.0608 | 0.0696 |
| M122C | 0.108 | 0.0769 | 0.0637 | 0.096 | 0.0771 | 0.0486 | 0.0682 | 0.0839 | 0.0783 |  | 0.0457 | 0.0612 | 0.103 | 0.071 | 0.0566 | 0.0702 | 0.0769 | 0.124 |  | 0.0726 |
| M122D | 0.099 |  | 0.0571 | 0.0953 | 0.0765 | 0.0617 | 0.0909 |  | 0.0625 | 0.0619 |  |  | 0.0998 | 0.0609 | 0.0682 | 0.066 | 0.0707 | 0.11 | 0.0658 |  |
| M122S | 0.14 |  | 0.0788 |  | 0.0829 |  | 0.0617 | 0.104 |  | 0.0566 |  | 0.0611 | 0.117 | 0.046 | 0.0451 |  |  | 0.134 |  |  |
| F133T | 0.0946 | 0.06 |  |  | 0.112 | 0.0668 |  | 0.0836 | 0.0679 |  | 0.086 |  | 0.115 |  | 0.0775 |  | 0.0847 | 0.104 | 0.0966 |  |
| L112P | 0.0529 |  | 0.0089 | 0.0604 |  | 0.0535 |  | 0.0536 | 0.0477 | 0.0532 |  | 0.0485 | 0.053 | 0.0515 | 0.0501 | 0.0537 |  | 0.0561 | 0.0536 |  |
| F117W | 0.0906 | 0.0662 |  | 0.107 |  | 0.0331 |  |  |  | 0.0695 |  |  | 0.107 | 0.0801 |  | 0.0642 |  | 0.0665 | 0.0646 |  |
| C111F | 0.124 | 0.081 |  | 0.0945 | 0.0912 | 0.0448 | 0.0414 | 0.108 | 0.0883 |  |  | 0.0637 | 0.108 | 0.0724 |  | 0.0545 | 0.0712 |  | 0.0668 |  |
| C111V | 0.11 | 0.0857 |  | 0.072 |  | 0.0538 | 0.0623 | 0.0867 | 0.0601 | 0.0608 | 0.0711 | 0.0649 | 0.106 | 0.0641 | 0.067 | 0.0796 | 0.0879 | 0.0294 | 0.0576 |  |
| T115D | 0.0281 |  | 0.0941 |  |  |  | 0.0619 |  | 0.0798 |  |  | 0.0814 | 0.0967 | 0.0632 |  |  |  |  |  |  |
| T115P | 0.0978 |  |  | 0.0828 |  |  |  |  | 0.11 | 0.0691 |  | 0.0679 | 0.109 |  | 0.0593 | 0.075 | 0.0815 |  | 0.0577 |  |
| V126S | 0.0924 |  |  | 0.123 |  | 0.0556 | 0.0552 | 0.181 | 0.0801 | 0.0499 |  | 0.06 | 0.114 | 0.0628 | 0.0691 | 0.0599 | 0.0795 | 0.112 | 0.0938 |  |
| V126L | 0.08 |  |  | 0.127 |  |  | 0.0627 |  | 0.0859 | 0.0628 |  |  | 0.108 |  |  | 0.0502 |  |  |  |  |
| S121C | 0.104 | 0.0603 |  | 0.105 |  |  | 0.062 | 0.0704 |  | 0.0759 | 0.0663 |  | 0.106 |  |  |  |  | 0.132 | 0.0536 |  |
| S121R | 0.092 | 0.0682 |  | 0.0875 | 0.0836 | 0.0644 | 0.0599 | 0.0847 | 0.0597 | 0.0446 | 0.0723 | 0.061 | 0.117 | 0.0668 | 0.0362 | 0.067 |  | 0.132 | 0.0583 |  |
| T129S | 0.101 |  | 0.0844 | 0.11 | 0.0866 |  | 0.0677 | 0.0717 | 0.0732 |  | 0.0701 | 0.0598 | 0.112 | 0.0634 |  | 0.0646 |  | 0.0947 | 0.0709 |  |
| T132L | 0.0797 |  |  | 0.101 |  | 0.0641 |  | 0.0739 | 0.0693 | 0.0398 | 0.0526 | 0.0531 | 0.0911 | 0.0562 | 0.0656 | 0.0592 | 0.0608 | 0.0874 | 0.0457 |  |
| T132P | 0.11 |  |  | 0.0408 | 0.0399 | 0.0508 | 0.0523 |  | 0.047 | 0.061 |  | 0.0534 | 0.0678 | 0.0557 | 0.0417 | 0.0532 |  | 0.0549 |  | 0.0789 |
| S135Q | 0.0793 | 0.0617 | 0.0589 | 0.0633 | 0.0594 | 0.0681 | 0.0403 | 0.0509 | 0.0253 | 0.0565 | 0.0778 | 0.0689 | 0.076 | 0.0553 |  | 0.0566 | 0.0612 | 0.0592 | 0.0625 | 0.0532 |
